Results as given in paper PMC10318468.
Results are given in words; binding and its absence hold for the method and conditions named. Binding seen in cells or lysates may run through a third protein. Some binding calls cover weakened binding; strength is not graded here. Where a sequence is shown, tags or fusion partners need not be part of it.

By UniProt entry, the sequences of proteins in these tests, tags left out.
UniProt Q9Y3Z3: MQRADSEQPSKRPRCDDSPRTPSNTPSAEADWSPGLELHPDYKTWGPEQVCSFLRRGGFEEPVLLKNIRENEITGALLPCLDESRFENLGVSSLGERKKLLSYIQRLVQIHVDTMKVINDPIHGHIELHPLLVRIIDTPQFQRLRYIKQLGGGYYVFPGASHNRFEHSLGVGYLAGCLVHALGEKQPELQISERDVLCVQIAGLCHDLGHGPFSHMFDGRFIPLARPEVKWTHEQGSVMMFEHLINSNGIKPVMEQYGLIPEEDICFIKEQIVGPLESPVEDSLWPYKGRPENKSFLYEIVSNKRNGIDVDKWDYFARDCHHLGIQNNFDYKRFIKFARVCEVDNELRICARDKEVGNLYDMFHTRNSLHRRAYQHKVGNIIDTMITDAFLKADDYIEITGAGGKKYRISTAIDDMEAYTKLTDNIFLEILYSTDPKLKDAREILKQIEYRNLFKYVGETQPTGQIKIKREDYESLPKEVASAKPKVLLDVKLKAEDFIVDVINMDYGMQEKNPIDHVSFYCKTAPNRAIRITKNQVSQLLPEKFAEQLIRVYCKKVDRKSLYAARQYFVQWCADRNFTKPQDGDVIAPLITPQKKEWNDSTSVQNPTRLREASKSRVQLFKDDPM

B1: Myc-IKKα, O15111 1-745 (protein)
chain: MERPPGLRPGAGGPWEMRERLGTGGFGNVCLYQHRELDLKIAIKSCRLELSTKNRERWCHEIQIMKKLNHANVVKACDVPEELNILIHDVPLLAMEYCSGGDLRKLLNKPENCCGLKESQILSLLSDIGSGIRYLHENKIIHRDLKPENIVLQDVGGKIIHKIIDLGYAKDVDQGSLCTSFVGTLQYLAPELFENKPYTATVDYWSFGTMVFECIAGYRPFLHHLQPFTWHEKIKKKDPKCIFACEEMSGEVRFSSHLPQPNSLCSLVVEPMENWLQLMLNWDPQQRGGPVDLTLKQPRCFVLMDHILNLKIVHILNMTSAKIISFLLPPDESLHSLQSRIERETGINTGSQELLSETGISLDPRKPASQCVLDGVRGCDSYMVYLFDKSKTVYEGPFASRSLSDCVNYIVQDSKIQLPIIQLRKVWAEAVHYVSGLKEDYSRLFQGQRAAMLSLLRYNANLTKMKNTLISASQQLKAKLEFFHKSIQLDLERYSEQMTYGISSEKMLKAWKEMEEKAIHYAEVGVIGYLEDQIMSLHAEIMELQKSPYGRRQGDLMESLEQRAIDLYKQLKHRPSDHSYSDSTEMVKIIVHTVQSQDRVLKELFGHLSKLLGCKQKIIDLLPKVEVALSNIKEADNTVMFMQGKRQKEIWHLLKIACTQSSARSLVGSSLEGAVTPQTSAWLPPTSAEHDHSLSCVVTPQDGETSAQMIEENLNCLGHLSTIIHEANEEQGNSMMNLDWSWLTE

How the values were obtained:
[1] = target: T1, Myc-IKKα (human) (UniProt O15111); experiment: co-IP; HEK293T cotransfected with FLAG-TAK1, increasing amounts of HA-SAMHD1 and Myc-IKKα or Myc-IKKβ; FLAG antibody for IP; Western blot
T1 sequence: B1 chain

[2] = target: T2, FLAG-tagged IKKα wildtype (human) (UniProt O15111); experiment: co-IP; HEK293T cotransfected for 48 h with HA-SAMHD1 (WT or truncated) and FLAG-IKK; FLAG antibody and Dynabeads protein G, IgG as negative control; washed with 50 mM Tris-HCl pH 7.4, 150 mM NaCl, 1% NP-40, 0.25% sodium deoxycholate; Western blot
T2 sequence: B1 chain

[3] = target: T3, FLAG-tagged IKKβ wildtype (human) (UniProt O14920); experiment: as above
T3 sequence: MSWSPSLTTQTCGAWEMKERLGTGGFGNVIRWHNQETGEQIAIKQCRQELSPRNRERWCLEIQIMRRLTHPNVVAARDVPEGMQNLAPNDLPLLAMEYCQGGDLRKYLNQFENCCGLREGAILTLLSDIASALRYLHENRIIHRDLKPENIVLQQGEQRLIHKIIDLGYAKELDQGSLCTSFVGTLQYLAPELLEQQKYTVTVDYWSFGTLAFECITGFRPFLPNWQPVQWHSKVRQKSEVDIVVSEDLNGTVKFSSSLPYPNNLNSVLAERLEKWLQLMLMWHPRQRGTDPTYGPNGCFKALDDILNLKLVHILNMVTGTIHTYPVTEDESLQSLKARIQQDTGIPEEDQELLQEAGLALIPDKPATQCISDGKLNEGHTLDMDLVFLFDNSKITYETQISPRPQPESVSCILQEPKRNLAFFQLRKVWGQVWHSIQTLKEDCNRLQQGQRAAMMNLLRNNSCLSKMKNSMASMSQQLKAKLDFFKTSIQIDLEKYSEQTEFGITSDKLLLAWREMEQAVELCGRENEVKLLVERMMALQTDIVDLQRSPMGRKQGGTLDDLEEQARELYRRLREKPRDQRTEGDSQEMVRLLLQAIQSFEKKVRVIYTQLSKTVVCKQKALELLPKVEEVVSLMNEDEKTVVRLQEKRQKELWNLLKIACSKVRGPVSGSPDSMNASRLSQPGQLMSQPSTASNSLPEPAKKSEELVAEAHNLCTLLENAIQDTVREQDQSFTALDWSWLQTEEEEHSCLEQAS

[4] = target: T4, FLAG-TAK1 (transforming growth factor β-activated kinase 1), O43318; experiment: co-IP; HEK293T cotransfected with FLAG-TAK1, increasing amounts of HA-SAMHD1 and Myc-IKKα or Myc-IKKβ; FLAG antibody for IP; Western blot; details: remark: other sources report otherwise
T4 chain: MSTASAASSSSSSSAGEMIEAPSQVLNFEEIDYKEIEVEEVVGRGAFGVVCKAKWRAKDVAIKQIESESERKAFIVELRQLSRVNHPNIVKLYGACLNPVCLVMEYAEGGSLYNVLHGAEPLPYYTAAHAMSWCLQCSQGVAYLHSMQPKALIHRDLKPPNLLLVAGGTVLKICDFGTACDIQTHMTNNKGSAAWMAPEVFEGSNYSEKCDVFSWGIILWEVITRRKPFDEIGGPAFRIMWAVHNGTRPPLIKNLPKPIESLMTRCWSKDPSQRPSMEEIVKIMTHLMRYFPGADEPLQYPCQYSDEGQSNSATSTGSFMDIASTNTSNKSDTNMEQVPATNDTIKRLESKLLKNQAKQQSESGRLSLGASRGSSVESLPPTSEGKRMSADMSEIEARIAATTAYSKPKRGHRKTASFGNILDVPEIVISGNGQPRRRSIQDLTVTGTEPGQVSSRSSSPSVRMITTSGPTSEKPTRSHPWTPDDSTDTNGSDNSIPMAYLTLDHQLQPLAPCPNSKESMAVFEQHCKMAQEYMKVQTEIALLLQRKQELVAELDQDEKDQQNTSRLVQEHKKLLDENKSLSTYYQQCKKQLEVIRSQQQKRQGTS

| Molecule | binding [1] | binding [2] | binding [3] | binding [4] |
| --- | --- | --- | --- | --- |
| HA-tagged SAMHD1 wildtype (from UniProt Q9Y3Z3 1-626) | binds | binds | binds |  |
| B1 |  |  |  | binds |
